Measurements reported in patent US20180305431A1 (Novo Nordisk, published 2018).
Positions count from the first letter of the chain named. Names and notes keep the numbering of the source.

B1: A22K(N(eps)tetradecanedioyl-4xgGlu), B3E, B28E, B29P, B30R human insulin (ligand)
chain 1: not shown
chain 2: FVEQHLCGSHLVEALYLVCGERGFFYTEPR
modifications: Lys A22 acylated on N(eps) with tetradecanedioyl-4xgGlu
notes: Two-chain acylated insulin analogue; also called Ex. No. 20
B2: A22K(N(eps)tetradecanedioyl-4xgGlu), B3E, B26E, B28E, B29P, B30R human insulin (ligand)
chain 1: not shown
chain 2: B1 chain 2 with Y26E
modifications: Lys A22 acylated on N(eps) with tetradecanedioyl-4xgGlu
notes: Two-chain acylated insulin analogue; also called Ex. No. 21
B3: A22K(N(eps)tetradecanedioyl-4xgGlu), B3E, B27E, B28E, B29P, B30R human insulin (ligand)
chain 1: not shown
chain 2: B1 chain 2 with T27E
modifications: Lys A22 acylated on N(eps) with tetradecanedioyl-4xgGlu
notes: Two-chain acylated insulin analogue; also called Ex. No. 22
B4: A22K(N(eps)tetradecanedioyl-gGlu-2xOEG), B3E, B27E, B28E, B29R, desB30 human insulin (ligand)
chain 1: not shown
chain 2: FVEQHLCGSHLVEALYLVCGERGFFYEER
modifications: Lys A22 acylated on N(eps) with tetradecanedioyl-gGlu-2xOEG
notes: Two-chain acylated insulin analogue; also called Ex. No. 1
B5: A22K(N(eps)Hexadecanedioyl-gGlu-2xOEG), B3E, B27E, B29R, desB30 human insulin (ligand)
chain 1: not shown
chain 2: FVEQHLCGSHLVEALYLVCGERGFFYEPR
modifications: Lys A22 acylated on N(eps) with hexadecanedioyl-gGlu-2xOEG
notes: Two-chain acylated insulin analogue; also called Ex. No. 25
B6: A22K(N(eps)hexadecanedioyl-4xgGlu), B3E, B26E, B29R, desB30 human insulin (ligand)
chain 1: not shown
chain 2: FVEQHLCGSHLVEALYLVCGERGFFETPR
modifications: Lys A22 acylated on N(eps) with hexadecanedioyl-4xgGlu
notes: Two-chain acylated insulin analogue; also called Ex. No. 41
B7: A22K(N(eps)hexadecanedioyl-4xgGlu), B3E, B27E, B29R, desB30 human insulin (ligand)
chain 1: not shown
chain 2: FVEQHLCGSHLVEALYLVCGERGFFYEPR
modifications: Lys A22 acylated on N(eps) with hexadecanedioyl-4xgGlu
notes: Two-chain acylated insulin analogue; also called Ex. No. 32
B8: A22K(N(eps)hexadecanedioyl-4xgGlu), B3E, B27P, B28E, B29R, desB30 human insulin (ligand)
chain 1: not shown
chain 2: FVEQHLCGSHLVEALYLVCGERGFFYPER
modifications: Lys A22 acylated on N(eps) with hexadecanedioyl-4xgGlu
notes: Two-chain acylated insulin analogue; also called Ex. No. 30
B9: A22K(N(eps)hexadecanedioyl-4xgGlu), B3E, B28D, B29R, desB30 human insulin (ligand)
chain 1: not shown
chain 2: FVEQHLCGSHLVEALYLVCGERGFFYTDR
modifications: Lys A22 acylated on N(eps) with hexadecanedioyl-4xgGlu
notes: also called Ex. No. 37
B10: A22K(N(eps)hexadecanedioyl-gGlu-2xOEG), B3E, B26E, B29R, desB30 human insulin (ligand)
chain 1: not shown
chain 2: FVEQHLCGSHLVEALYLVCGERGFFETPR
modifications: Lys A22 acylated on N(eps) with hexadecanedioyl-gGlu-2xOEG
notes: Two-chain acylated insulin analogue; also called Ex. No. 42
B11: A22K(N(eps)hexadecanedioyl-gGlu-2xOEG), B3E, B27P, B28E, B29R, desB30 human insulin (ligand)
chain 1: not shown
chain 2: FVEQHLCGSHLVEALYLVCGERGFFYPER
modifications: Lys A22 acylated on N(eps) with hexadecanedioyl-gGlu-2xOEG
notes: Two-chain acylated insulin analogue; also called Ex. No. 29
B12: A22K(N(eps)hexadecanedioyl-gGlu-2xOEG), B3E, B28D, B29R, desB30 human insulin (ligand)
chain 1: not shown
chain 2: FVEQHLCGSHLVEALYLVCGERGFFYTDR
modifications: Lys A22 acylated on N(eps) with hexadecanedioyl-gGlu-2xOEG
notes: Two-chain acylated insulin analogue; also called Ex. No. 33
B13: A22K(N(eps)tetradecanedioyl-4xgGlu), B3E, B26E, B27E, B28E, B29R, desB30 human insulin (ligand)
chain 1: not shown
chain 2: FVEQHLCGSHLVEALYLVCGERGFFEEER
modifications: Lys A22 acylated on N(eps) with tetradecanedioyl-4xgGlu
notes: Two-chain acylated insulin analogue; also called Ex. No. 36
B14: A22K(N(eps)tetradecanedioyl-4xgGlu), B3E, B26E, B28E, B29R, desB30 human insulin (ligand)
chain 1: not shown
chain 2: FVEQHLCGSHLVEALYLVCGERGFFETER
modifications: Lys A22 acylated on N(eps) with tetradecanedioyl-4xgGlu
notes: Two-chain acylated insulin analogue; also called Ex. No. 11
B15: A22K(N(eps)tetradecanedioyl-4xgGlu), B3E, B26E, B29R, desB30 human insulin (ligand)
chain 1: not shown
chain 2: FVEQHLCGSHLVEALYLVCGERGFFETPR
modifications: Lys A22 acylated on N(eps) with tetradecanedioyl-4xgGlu
notes: Two-chain acylated insulin analogue; also called Ex. No. 12
B16: A22K(N(eps)tetradecanedioyl-4xgGlu), B3E, B27E, B29R, desB30 human insulin (ligand)
chain 1: not shown
chain 2: FVEQHLCGSHLVEALYLVCGERGFFYEPR
modifications: Lys A22 acylated on N(eps) with tetradecanedioyl-4xgGlu
notes: Two-chain acylated insulin analogue; also called Ex. No. 6
B17: A22K(N(eps)tetradecanedioyl-4xgGlu), B3E, B27P, B28E, B29R, desB30 human insulin (ligand)
chain 1: not shown
chain 2: FVEQHLCGSHLVEALYLVCGERGFFYPER
modifications: Lys A22 acylated on N(eps) with tetradecanedioyl-4xgGlu
notes: Two-chain acylated insulin analogue; also called Ex. No. 38
B18: A22K(N(eps)tetradecanedioyl-4xgGlu), B3E, B28D, B29R, desB30 human insulin (ligand)
chain 1: not shown
chain 2: FVEQHLCGSHLVEALYLVCGERGFFYTDR
modifications: Lys A22 acylated on N(eps) with tetradecanedioyl-4xgGlu
notes: Two-chain acylated insulin analogue; also called Ex. No. 10
B19: A22K(N(eps)tetradecanedioyl-4xgGlu), B3Q, B26E, B28E, B29R, desB30 human insulin (ligand)
chain 1: not shown
chain 2: FVQQHLCGSHLVEALYLVCGERGFFETER
modifications: Lys A22 acylated on N(eps) with tetradecanedioyl-4xgGlu
notes: also called Ex. No. 40
B20: A22K(N(eps)tetradecanedioyl-4xgGlu), B3Q, B26E, B29R, desB30 human insulin (ligand)
chain 1: not shown
chain 2: FVQQHLCGSHLVEALYLVCGERGFFETPR
modifications: Lys A22 acylated on N(eps) with tetradecanedioyl-4xgGlu
notes: also called Ex. No. 39
B21: A22K(N(eps)tetradecanedioyl-gGlu-2xOEG), B3E, B27P, B28E, B29R, desB30 human insulin (ligand)
chain 1: not shown
chain 2: FVEQHLCGSHLVEALYLVCGERGFFYPER
modifications: Lys A22 acylated on N(eps) with tetradecanedioyl-gGlu-2xOEG
notes: Two-chain acylated insulin analogue; also called Ex. No. 5
B22: A22K(N(eps)tetradecanedioyl-gGlu-2xOEG), B3E, B28D, B29R, desB30 human insulin (ligand)
chain 1: not shown
chain 2: FVEQHLCGSHLVEALYLVCGERGFFYTDR
modifications: Lys A22 acylated on N(eps) with tetradecanedioyl-gGlu-2xOEG
notes: Two-chain acylated insulin analogue; also called Ex. No. 7
B23: A22K(N(eps)hexadecanedioyl-4xgGlu), B3E, B27E, B28E, B29R, desB30 human insulin (ligand)
chain 1: not shown
chain 2: FVEQHLCGSHLVEALYLVCGERGFFYEER
modifications: Lys A22 acylated on N(eps) with hexadecanedioyl-4xgGlu
notes: Two-chain acylated insulin analogue; also called Ex. No. 28
B24: A22K(N(eps)tetradecanedioyl-4xgGlu), B3E, B27E, B28E, B29R, desB30 human insulin (ligand)
chain 1: not shown
chain 2: FVEQHLCGSHLVEALYLVCGERGFFYEER
modifications: Lys A22 acylated on N(eps) with tetradecanedioyl-4xgGlu
notes: also called Ex. No. 3
B25: A22K(N(eps)hexadecanedioyl-gGlu-2xOEG), B3E, B27E, B28E, B29R, desB30 human insulin (ligand)
chain 1: not shown
chain 2: FVEQHLCGSHLVEALYLVCGERGFFYEER
modifications: Lys A22 acylated on N(eps) with hexadecanedioyl-gGlu-2xOEG
notes: Two-chain acylated insulin analogue; also called Ex. No. 31
B26: A22K(N(eps)tetradecanedioyl-4xgGlu), B3E, B26E, B27E, B28R, desB29, desB30 human insulin (ligand)
chain 1: not shown
chain 2: FVEQHLCGSHLVEALYLVCGERGFFEER
modifications: Lys A22 acylated on N(eps) with tetradecanedioyl-4xgGlu
notes: Two-chain acylated insulin analogue; also called Ex. No. 18
B27: A22K(N(eps)tetradecanedioyl-4xgGlu), B3E, B26E, B27P, B28R, desB29, desB30 human insulin (ligand)
chain 1: not shown
chain 2: FVEQHLCGSHLVEALYLVCGERGFFEPR
modifications: Lys A22 acylated on N(eps) with tetradecanedioyl-4xgGlu
notes: Two-chain acylated insulin analogue; also called Ex. No. 13
B28: A22K(N(eps)tetradecanedioyl-4xgGlu), B3E, B27E, B28R, desB29, desB30 human insulin (ligand)
chain 1: not shown
chain 2: FVEQHLCGSHLVEALYLVCGERGFFYER
modifications: Lys A22 acylated on N(eps) with tetradecanedioyl-4xgGlu
notes: Two-chain acylated insulin analogue; also called Ex. No. 14

Experiments:
[1] = target: T1, solubilised human IR-A (semipurified by wheat germ agglutinin chromatography from baby hamster kidney (BHK) … (human)); experiment: SPA competition vs [125I-A14Y]-human insulin, solubilised hIR-A, 0% HSA
T1 construct: mature; Detergent-solubilised holoreceptor captured by anti-IR mouse antibody 83-7 on SPA beads; the precursor is processed into alpha and beta chains; also called hIRA; human insulin receptor (IR), A isoform

[2] = target: T2, membrane-associated human IGF-1R (plasma membranes of BHK cells stably transfected with the human IGF-IR … (human)); experiment: SPA competition vs [125I-Tyr31]-human IGF-1, membrane hIGF-1R, 0.1% HSA
T2 construct: whole, on cells; Receptor in purified plasma membranes, not on intact cells; also called hIGF1R; insulin-like growth factor 1 receptor
Protocol: The relative binding affinity for either of the membrane-associated human IR-A, IR-B or IGF-1R is determined by competition binding in a SPA setup. IR assays are performed in duplicate in 96-well OptiPlates (Perkin-Elmer Life Sciences). […] Assays are terminated by centrifugation of the plate at 2000 rpm for 2 minutes and bound radioactivity quantified by counting on a TopCount NXT (Perkin-Elmer Life Sciences).
IGF-1R assays are conducted essentially as for the IR binding assays except that membrane-associated IGF-1R and 50 pM [¹²5-Tyr31]-human IGF-1 were employed.

[3] = target: T1, solubilised human IR-A (semipurified by …); experiment: SPA competition vs [125I-A14Y]-human insulin, solubilised hIR-A, 1.5% HSA

Binder | relative binding affinity (% rel to HI) [1] | relative binding affinity (% rel to HI) [2] | relative binding affinity (% rel to HI) [3]
B1 | 123 % rel to HI | 43.5 % rel to HI | 85.3 % rel to HI
B2 | 133 % rel to HI | 7.7 % rel to HI | 74 % rel to HI
B3 | 115 % rel to HI | 35.7 % rel to HI | 89.2 % rel to HI
B4 | 108 % rel to HI | 66.3 % rel to HI | 71.5 % rel to HI
B5 | 158 % rel to HI | 55.3 % rel to HI | 9.9 % rel to HI
B6 | 141 % rel to HI | – | 19.6 % rel to HI
B7 | 96.7 % rel to HI | 20.1 % rel to HI | 10.7 % rel to HI
B8 | 168 % rel to HI | 64.1 % rel to HI | 10.8 % rel to HI
B9 | – | 32.7 % rel to HI | 16.1 % rel to HI
B10 | 104 % rel to HI | – | 16.1 % rel to HI
B11 | 157 % rel to HI | 99.4 % rel to HI | 14.3 % rel to HI
B12 | 102 % rel to HI | 85.1 % rel to HI | 13.5 % rel to HI
B13 | 120 % rel to HI | 5.4 % rel to HI | –
B14 | 119 % rel to HI | 13.6 % rel to HI | 101 % rel to HI
B15 | 180 % rel to HI | 13 % rel to HI | 121 % rel to HI
B16 | 100 % rel to HI | 55.7 % rel to HI | 57.4 % rel to HI
B17 | 155 % rel to HI | 102 % rel to HI | 77.6 % rel to HI
B18 | 111 % rel to HI | 77.3 % rel to HI | 77.2 % rel to HI
B19 | 170 % rel to HI | 9.82 % rel to HI | 152 % rel to HI
B20 | 136 % rel to HI | 18.4 % rel to HI | 105 % rel to HI
B21 | 162 % rel to HI | 170 % rel to HI | 86 % rel to HI
B22 | 100 % rel to HI | 124 % rel to HI | 67.6 % rel to HI
B23 | 103 % rel to HI | 26 % rel to HI | 10.6 % rel to HI
B24 | 90.9 % rel to HI | 44.1 % rel to HI | 75 % rel to HI
B25 | 138 % rel to HI | 55 % rel to HI | 9.9 % rel to HI
B26 | – | 7.1 % rel to HI | 113 % rel to HI
B27 | 232 % rel to HI | 65.1 % rel to HI | 174 % rel to HI
B28 | 118 % rel to HI | 35.2 % rel to HI | 60.5 % rel to HI
